Assay results from the supplement of paper PMC4967469.
A lower IC50 marks a more sensitive line; a fit beyond the top or the lowest dose is shown as a bound at that dose. For AUC the same curve is integrated over the 256-fold range of doses and scaled to a fraction: 1 means no effect, lower means more sensitive. An inferred top dose was calculated from the reported fits.

Each cell line was assayed with Cc1ccc(-c2c(C(=O)CF)n(CCCO)c3ncnc(N)c23)cc1 [FMK] (assay: Viability of human cancer cell lines after 72 h of drug (GDSC screen)). Details: top dose inferred.
Description: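 Human cancer cell lines in 384-well plates, medium with 10% serum, drug for 72 h over a 256-fold dose range (nine 2-fold or five 4-fold steps up to the top dose). Adherent lines were fixed and stained with the nucleic acid dye Syto60, suspension lines read with resazurin; signal relative to control wells, capped at 0 and 100%. One two-parameter sigmoid per drug and line, fitted in a mixed model over all curves with the slope shared within a line.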

Cell Line	AUC	IC50 [µM]
CPC-N (small cell lung carcinoma, suspension, top dose 20 µM)	0.985	> 20
CS1 (bone, adherent, top dose 20 µM)	0.966	> 20
CTB-1 (B-cell lymphoma, suspension, top dose 20 µM)	0.979	> 20
CTV-1 (acute myeloid leukaemia, suspension, top dose 20 µM)	0.654	3.03
CW-2 (large intestine, adherent, top dose 20 µM)	0.981	> 20
Ca9-22 (head and neck, adherent, top dose 20 µM)	0.973	> 20
Ca-Ski (cervix, adherent, top dose 20 µM)	0.955	> 20
CaR-1 (large intestine, adherent, top dose 20 µM)	0.974	> 20
Calu-3 (lung adenocarcinoma, adherent, top dose 20 µM)	0.973	> 20
Calu-6 (lung adenocarcinoma, adherent, top dose 20 µM)	0.982	> 20
Caov-3 (ovary, adherent, top dose 20 µM)	0.991	> 20
Caov-4 (ovary, adherent, top dose 20 µM)	0.963	> 20
Capan-2 (pancreas, adherent, top dose 20 µM)	0.984	> 20
ChaGo-K-1 (non-small cell lung carcinoma, adherent, top dose 20 µM)	0.965	> 20
D-247MG (glioma, adherent, top dose 20 µM)	0.853	> 20
D-263MG (glioma, adherent, top dose 20 µM)	0.977	> 20
D-283MED (medulloblastoma, adherent, top dose 20 µM)	0.989	> 20
D-336MG (glioma, adherent, top dose 20 µM)	0.955	> 20
D-392MG (glioma, adherent, top dose 20 µM)	0.971	> 20
D-423MG (glioma, adherent, top dose 10.24 µM)	0.967	> 10.2
D-502MG (glioma, adherent, top dose 20 µM)	0.973	> 20

Cell Line	AUC	IC50 [µM]
D-542MG (glioma, adherent, top dose 20 µM)	0.982	> 20
DAN-G (pancreas, adherent, top dose 20 µM)	0.991	> 20
DB (B-cell lymphoma, suspension, top dose 20 µM)	0.97	> 20
DBTRG-05MG (glioma, adherent, top dose 20 µM)	0.979	> 20
DEL (lymphoid neoplasm, suspension, top dose 20 µM)	0.984	> 20
DG-75 (Burkitt lymphoma, suspension, top dose 20 µM)	0.986	> 20
DJM-1 (skin, adherent, top dose 20 µM)	0.989	> 20
DK-MG (glioma, adherent, top dose 20 µM)	0.978	> 20
DMS-53 (small cell lung carcinoma, adherent, top dose 20 µM)	0.988	> 20
DMS-79 (small cell lung carcinoma, suspension, top dose 20 µM)	0.981	> 20
DMS-114 (small cell lung carcinoma, adherent, top dose 20 µM)	0.981	> 20
DMS-273 (small cell lung carcinoma, adherent, top dose 20 µM)	0.984	> 20
DND-41 (T-cell leukaemia, suspension, top dose 20 µM)	0.926	> 20
DU-4475 (breast, suspension, top dose 20 µM)	0.977	> 20
Daoy (medulloblastoma, adherent, top dose 20 µM)	0.979	> 20
Daudi (Burkitt lymphoma, suspension, top dose 20 µM)	0.99	> 20
Detroit562 (head and neck, adherent, top dose 20 µM)	0.983	> 20
DoTc2-4510 (cervix, adherent, top dose 20 µM)	0.983	> 20
EB2 (Burkitt lymphoma, suspension, top dose 20 µM)	0.912	> 20
EB-3 (Burkitt lymphoma, suspension, top dose 20 µM)	0.94	> 20
EBC-1 (lung squamous cell carcinoma, adherent, top dose 20 µM)	0.978	> 20

Cell Line	AUC	IC50 [µM]
EC-GI-10 (oesophagus, adherent, top dose 20 µM)	0.989	> 20
ECC10 (stomach, suspension, top dose 20 µM)	0.984	> 20
EFM-19 (breast, adherent, top dose 20 µM)	0.977	> 20
EFM-192A (breast, adherent, top dose 20 µM)	0.983	> 20
EFO-21 (ovary, adherent, top dose 20 µM)	0.95	> 20
EFO-27 (ovary, adherent, top dose 20 µM)	0.943	> 20
EGI-1 (biliary tract, adherent, top dose 20 µM)	0.952	> 20
EJM (lymphoid neoplasm, semi-adherent, top dose 20 µM)	0.988	> 20
EKVX (lung adenocarcinoma, adherent, top dose 20 µM)	0.943	> 20
EM-2 (chronic myeloid leukaemia, suspension, top dose 20 µM)	0.947	> 20
EN (endometrium, adherent, top dose 20 µM)	0.983	> 20
EPLC-272H (lung squamous cell carcinoma, adherent, top dose 20 µM)	0.964	> 20
ES1 (Ewing sarcoma, adherent, top dose 20 µM)	0.932	> 20
ES3 (Ewing sarcoma, adherent, top dose 20 µM)	0.961	> 20
ES4 (Ewing sarcoma, adherent, top dose 20 µM)	0.974	> 20
ES5 (Ewing sarcoma, adherent, top dose 20 µM)	0.969	> 20
ES6 (Ewing sarcoma, adherent, top dose 20 µM)	0.967	> 20
ES7 (Ewing sarcoma, adherent, top dose 20 µM)	0.924	> 20
ES8 (Ewing sarcoma, adherent, top dose 20 µM)	0.977	> 20
ES-2 (ovary, adherent, top dose 20 µM)	0.991	> 20
ETK-1 (biliary tract, adherent, top dose 20 µM)	0.966	> 20

Cell Line	AUC	IC50 [µM]
EVSA-T (breast, adherent, top dose 20 µM)	0.991	> 20
EW-1 (Ewing sarcoma, semi-adherent, top dose 20 µM)	0.973	> 20
EW-3 (Ewing sarcoma, adherent, top dose 20 µM)	0.972	> 20
EW-7 (Ewing sarcoma, semi-adherent, top dose 20 µM)	0.972	> 20
EW-11 (Ewing sarcoma, adherent, top dose 20 µM)	0.979	> 20
EW-13 (Ewing sarcoma, suspension, top dose 20 µM)	0.958	> 20
EW-16 (Ewing sarcoma, adherent, top dose 20 µM)	0.983	> 20
EW-18 (Ewing sarcoma, suspension, top dose 20 µM)	0.976	> 20
EW-24 (Ewing sarcoma, semi-adherent, top dose 20 µM)	0.993	> 20
EoL-1-cell (haematopoietic neoplasm, suspension, top dose 20 µM)	0.965	> 20
FADU (head and neck, adherent, top dose 20 µM)	0.979	> 20
FU97 (stomach, adherent, top dose 20 µM)	0.982	> 20
FU-OV-1 (ovary, adherent, top dose 20 µM)	0.978	> 20
Farage (B-cell lymphoma, suspension, top dose 20 µM)	0.99	> 20
G-292 Clone A141B1 (osteosarcoma, adherent, top dose 20 µM)	0.942	> 20
G-361 (melanoma, adherent, top dose 20 µM)	0.947	> 20
G-401 (kidney, adherent, top dose 20 µM)	0.964	> 20
G-402 (soft tissue, adherent, top dose 20 µM)	0.957	> 20
G-MEL (melanoma, adherent, top dose 20 µM)	0.952	> 20
